Counter-ions that a name gives are not always drawn. Whole data set: some 1,900 compounds, median “cell viability of compound + 1 nM pemigatinib relative to pemigatinib-only (DMSO) wells” near 0.95, cut for the lowest 2% near 0.22. The list shows a part of the results.

The source of these data is the supplement of paper PMC9588766.

This assay has as its system PDC-DUC18828. Description: cell viability of compound + 1 nM pemigatinib relative to pemigatinib-only (DMSO) wells (fraction); PDC-DUC18828 is a patient-derived cholangiocarcinoma cell line; higher = less growth inhibition. To be noted: first compound 1 µM; pemigatinib concentration 1 nM; 72 h. The protocol:
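Selleck Bioactive library screen in the patient-derived FGFR2 fusion-positive ICC cell line PDC-DUC18828 (500 cells/well). Each compound was tested at 1 uM with 1 nM pemigatinib, in triplicate, for 72 h. Viability was read by CellTiter-Glo and normalised to plate DMSO controls. Value is the paper's averaged normalised viability.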
Consider `Fc1ccc(CNc2ncnc3ccc(F)cc23)cc1` [Spautin-1] + CCN1C(=O)N(c2c(F)c(OC)cc(OC)c2F)Cc2cnc3[nH]c(CN4CCOCC4)cc3c21 [pemigatinib], for which the cell viability is 0.843.
For `O=S(=O)(N=Cc1c(O)ccc2ccccc12)c1cccs1` + CCN1C(=O)N(c2c(F)c(OC)cc(OC)c2F)Cc2cnc3[nH]c(CN4CCOCC4)cc3c21 [pemigatinib] the value was 0.955; for `NC1=N[C@@]2(c3cc(NC(=O)c4ccc(F)cn4)ccc3F)COC[C@H]2CS1` + CCN1C(=O)N(c2c(F)c(OC)cc(OC)c2F)Cc2cnc3[nH]c(CN4CCOCC4)cc3c21 [pemigatinib], 1.03; for `COc1ccc2cc1Oc1ccc(cc1)C[C@H]1c3c(cc4c(c3Oc3cc5c(cc3OC)CCN(C)[C@@H]5C2)OCO4)CCN1C` [Cepharanthine] + CCN1C(=O)N(c2c(F)c(OC)cc(OC)c2F)Cc2cnc3[nH]c(CN4CCOCC4)cc3c21 [pemigatinib], 0.955.
In the case of `O[C@@H]1CO[C@H]2[C@@H]1OC[C@@H]2O` [Isosorbide] + CCN1C(=O)N(c2c(F)c(OC)cc(OC)c2F)Cc2cnc3[nH]c(CN4CCOCC4)cc3c21 [pemigatinib] it was 1.02; in that of `O=c1cc(CN2CCOCC2)occ1OCCCCCSc1ccnc2cc(C(F)(F)F)ccc12` + CCN1C(=O)N(c2c(F)c(OC)cc(OC)c2F)Cc2cnc3[nH]c(CN4CCOCC4)cc3c21 [pemigatinib], 0.911.
In the case of `CN(C)CCN1C(=O)c2cccc3cc(N)cc(c23)C1=O` [Amonafide] + CCN1C(=O)N(c2c(F)c(OC)cc(OC)c2F)Cc2cnc3[nH]c(CN4CCOCC4)cc3c21 [pemigatinib] it was 0.97; in that of `CCOc1ccc(Cc2cc([C@@H]3O[C@H](CO)[C@@H](O)[C@H](O)[C@H]3O)ccc2Cl)cc1` [Dapagliflozin] + CCN1C(=O)N(c2c(F)c(OC)cc(OC)c2F)Cc2cnc3[nH]c(CN4CCOCC4)cc3c21 [pemigatinib], 1.02.
With `CN(C)CCC(c1ccccc1)c1ccccn1` (centres undefined) [Pheniramine Maleate] + CCN1C(=O)N(c2c(F)c(OC)cc(OC)c2F)Cc2cnc3[nH]c(CN4CCOCC4)cc3c21 [pemigatinib], the cell viability worked out at 0.949.
Regarding `CC(C)NCCCn1c(Sc2cc3c(cc2I)OCO3)nc2c(N)ncnc21` + CCN1C(=O)N(c2c(F)c(OC)cc(OC)c2F)Cc2cnc3[nH]c(CN4CCOCC4)cc3c21 [pemigatinib], the cell viability stood at 0.489.
Consider `Nc1ccn([C@@H]2O[C@H](CO)[C@@H](O)[C@H]2O)c(=O)n1` [Cytidine] + CCN1C(=O)N(c2c(F)c(OC)cc(OC)c2F)Cc2cnc3[nH]c(CN4CCOCC4)cc3c21 [pemigatinib], for which the cell viability stood at 0.989.
On to `Cc1c(O)cccc1C(=O)N[C@@H](CSc1ccccc1)[C@H](O)CN1C[C@H]2CCCC[C@H]2C[C@H]1C(=O)NC(C)(C)C` [Nelfinavir Mesylate] + CCN1C(=O)N(c2c(F)c(OC)cc(OC)c2F)Cc2cnc3[nH]c(CN4CCOCC4)cc3c21 [pemigatinib], for which the cell viability came to 0.966.
For `CCCCCCCCCCCCCCCCO` [1-Hexadecanol] + CCN1C(=O)N(c2c(F)c(OC)cc(OC)c2F)Cc2cnc3[nH]c(CN4CCOCC4)cc3c21 [pemigatinib] the value was 0.997; for `CCN1/C(=C/C(C)=O)Sc2ccc(OC)cc21` + CCN1C(=O)N(c2c(F)c(OC)cc(OC)c2F)Cc2cnc3[nH]c(CN4CCOCC4)cc3c21 [pemigatinib], 0.933; for `CCCCC(C=O)NC(=O)C(CC(C)C)NC(=O)C(CC(C)C)NC(C)=O` (centres undefined) + CCN1C(=O)N(c2c(F)c(OC)cc(OC)c2F)Cc2cnc3[nH]c(CN4CCOCC4)cc3c21 [pemigatinib], 0.544.
In the case of `Cc1cc(C)cc(NC(=O)Cc2ccc(OC(C)(C)C(=O)O)cc2)c1` [Efaproxiral Sodium] + CCN1C(=O)N(c2c(F)c(OC)cc(OC)c2F)Cc2cnc3[nH]c(CN4CCOCC4)cc3c21 [pemigatinib] it was 0.974.
Take `Cc1ccc(O)c([C@H](CCN(C(C)C)C(C)C)c2ccccc2)c1` [Tolterodine tartrate] + CCN1C(=O)N(c2c(F)c(OC)cc(OC)c2F)Cc2cnc3[nH]c(CN4CCOCC4)cc3c21 [pemigatinib]: the cell viability turned out to be 0.911.
On to `CCCCOc1ccc(CC(=O)NO)cc1` [Bufexamac] + CCN1C(=O)N(c2c(F)c(OC)cc(OC)c2F)Cc2cnc3[nH]c(CN4CCOCC4)cc3c21 [pemigatinib], for which the cell viability is 0.829.
In the case of `NC(=O)NO` [Hydroxyurea] + CCN1C(=O)N(c2c(F)c(OC)cc(OC)c2F)Cc2cnc3[nH]c(CN4CCOCC4)cc3c21 [pemigatinib] it was 1.04; in that of `Clc1ccccc1C(c1ccccc1)(c1ccccc1)n1ccnc1` [Clotrimazole] + CCN1C(=O)N(c2c(F)c(OC)cc(OC)c2F)Cc2cnc3[nH]c(CN4CCOCC4)cc3c21 [pemigatinib], 1.01.
Regarding `Clc1ccc(COC(Cn2ccnc2)c2ccc(Cl)cc2Cl)cc1` (centres undefined) [Econazole nitrate] + CCN1C(=O)N(c2c(F)c(OC)cc(OC)c2F)Cc2cnc3[nH]c(CN4CCOCC4)cc3c21 [pemigatinib], the cell viability turned out to be 0.879.
On to `CO[C@H]1C(=O)[C@]2(C)[C@@H](OC)C[C@H]3OC[C@@]3(OC(C)=O)[C@H]2[C@H](OC(=O)c2ccccc2)[C@]2(O)C[C@H](OC(=O)[C@H](O)[C@@H](NC(=O)OC(C)(C)C)c3ccccc3)C(C)=C1C2(C)C` [Cabazitaxel] + CCN1C(=O)N(c2c(F)c(OC)cc(OC)c2F)Cc2cnc3[nH]c(CN4CCOCC4)cc3c21 [pemigatinib], for which the cell viability turned out to be 0.267.
As for `O=S(=O)(O)CCSSCCS(=O)(=O)O` [Dimesna] + CCN1C(=O)N(c2c(F)c(OC)cc(OC)c2F)Cc2cnc3[nH]c(CN4CCOCC4)cc3c21 [pemigatinib], the cell viability came out at 0.984.
In the case of `CC(C)(C)c1ccc(S(=O)(=O)NCc2ccc(C(=O)Nc3cccnc3)cc2)cc1` + CCN1C(=O)N(c2c(F)c(OC)cc(OC)c2F)Cc2cnc3[nH]c(CN4CCOCC4)cc3c21 [pemigatinib] it was 0.527; in that of `Cn1cnc(N)c2ncnc1-2` [3-Methyladenine] + CCN1C(=O)N(c2c(F)c(OC)cc(OC)c2F)Cc2cnc3[nH]c(CN4CCOCC4)cc3c21 [pemigatinib], 0.963.
For `COc1cc2c(cc1OC)CN(CCc1ccc(NC(=O)c3cccc4c(=O)c5cccc(OC)c5[nH]c34)cc1)CC2` + CCN1C(=O)N(c2c(F)c(OC)cc(OC)c2F)Cc2cnc3[nH]c(CN4CCOCC4)cc3c21 [pemigatinib] the value was 0.952.
On to `CCN(CCCc1ccccc1)CCCc1ccccc1` [Alverine Citrate] + CCN1C(=O)N(c2c(F)c(OC)cc(OC)c2F)Cc2cnc3[nH]c(CN4CCOCC4)cc3c21 [pemigatinib], for which the cell viability was 0.96.
In the case of `Cc1cc(CS(=O)(=O)c2ccccc2)cc(OCc2ccc(CN3CCC[C@@H]3CO)cc2)c1` + CCN1C(=O)N(c2c(F)c(OC)cc(OC)c2F)Cc2cnc3[nH]c(CN4CCOCC4)cc3c21 [pemigatinib] it was 0.973.
`CCc1cc(/C(C)=N/OCc2ccc(C3CCCCC3)c(C(F)(F)F)c2)ccc1CN1CC(C(=O)O)C1` [BAF312 (Siponimod)] + CCN1C(=O)N(c2c(F)c(OC)cc(OC)c2F)Cc2cnc3[nH]c(CN4CCOCC4)cc3c21 [pemigatinib]: the cell viability was found to be 0.993.
For `C=CCN1CCCC1CNC(=O)c1cc2nn[nH]c2cc1OC` (centres undefined) [Alizapride HCl] + CCN1C(=O)N(c2c(F)c(OC)cc(OC)c2F)Cc2cnc3[nH]c(CN4CCOCC4)cc3c21 [pemigatinib] the value was 0.954; for `CC(C)c1onc(-c2c(Cl)cccc2Cl)c1COc1ccc(/C=C/c2cccc(C(=O)O)c2)c(Cl)c1` + CCN1C(=O)N(c2c(F)c(OC)cc(OC)c2F)Cc2cnc3[nH]c(CN4CCOCC4)cc3c21 [pemigatinib], 0.884.
In the case of `NC(=O)CCCSc1nc(N)nc(-c2c(Cl)cc3c4c(cccc24)COC3)n1` + CCN1C(=O)N(c2c(F)c(OC)cc(OC)c2F)Cc2cnc3[nH]c(CN4CCOCC4)cc3c21 [pemigatinib] it was 0.317; in that of `Nc1nc(Nc2ccc(S(N)(=O)=O)cc2)nn1C(=O)c1c(F)cccc1F` + CCN1C(=O)N(c2c(F)c(OC)cc(OC)c2F)Cc2cnc3[nH]c(CN4CCOCC4)cc3c21 [pemigatinib], 0.899; in that of `N#CC(=C(/N)Sc1ccccc1N)/C(C#N)=C(\N)Sc1ccccc1N` + CCN1C(=O)N(c2c(F)c(OC)cc(OC)c2F)Cc2cnc3[nH]c(CN4CCOCC4)cc3c21 [pemigatinib], 0.959.
For `Cc1[nH]c(/C=C2\C(=O)Nc3ccc(S(=O)(=O)Cc4c(Cl)cccc4Cl)cc32)c(C)c1C(=O)N1CCC[C@@H]1CN1CCCC1` + CCN1C(=O)N(c2c(F)c(OC)cc(OC)c2F)Cc2cnc3[nH]c(CN4CCOCC4)cc3c21 [pemigatinib] the value was 0.955; for `COc1ccc(CNCc2cccc3ccccc23)cc1` + CCN1C(=O)N(c2c(F)c(OC)cc(OC)c2F)Cc2cnc3[nH]c(CN4CCOCC4)cc3c21 [pemigatinib], 0.904.
`NC(=O)[C@@H](CCC(F)(F)F)N(Cc1ccc(-c2ncon2)cc1F)S(=O)(=O)c1ccc(Cl)cc1` + CCN1C(=O)N(c2c(F)c(OC)cc(OC)c2F)Cc2cnc3[nH]c(CN4CCOCC4)cc3c21 [pemigatinib]: the cell viability was 0.89.
For `CC(C)(Oc1ccc(C2CC2(Cl)Cl)cc1)C(=O)O` (centres undefined) [Ciprofibrate] + CCN1C(=O)N(c2c(F)c(OC)cc(OC)c2F)Cc2cnc3[nH]c(CN4CCOCC4)cc3c21 [pemigatinib] the value was 0.982; for `NC(=O)c1cccnc1` [Nicotinamide (Vitamin B3)] + CCN1C(=O)N(c2c(F)c(OC)cc(OC)c2F)Cc2cnc3[nH]c(CN4CCOCC4)cc3c21 [pemigatinib], 0.994.
